These are yes or no findings as the source states them, for the method shown. Binding seen in cells or lysates may run through a third protein. Some binding calls cover weakened binding; strength is not graded here. For part of these data: Sequences can lack the tags named with a protein. Blank lines part the entries; values can stand above or below the molecule they belong to.
Key:
[1] = biological target: T1, MTG16 (doxycycline-induced in Raji/MTG16 Tet-On 3G cells) (UniProt O75081); assay: co-IP; Raji-MTG16 cells induced 12 h with 20 ng/ml doxycycline under 4% O2; IP with α-MTG or α-HIF1α and Protein A Sepharose; Western blotting
T1 sequence: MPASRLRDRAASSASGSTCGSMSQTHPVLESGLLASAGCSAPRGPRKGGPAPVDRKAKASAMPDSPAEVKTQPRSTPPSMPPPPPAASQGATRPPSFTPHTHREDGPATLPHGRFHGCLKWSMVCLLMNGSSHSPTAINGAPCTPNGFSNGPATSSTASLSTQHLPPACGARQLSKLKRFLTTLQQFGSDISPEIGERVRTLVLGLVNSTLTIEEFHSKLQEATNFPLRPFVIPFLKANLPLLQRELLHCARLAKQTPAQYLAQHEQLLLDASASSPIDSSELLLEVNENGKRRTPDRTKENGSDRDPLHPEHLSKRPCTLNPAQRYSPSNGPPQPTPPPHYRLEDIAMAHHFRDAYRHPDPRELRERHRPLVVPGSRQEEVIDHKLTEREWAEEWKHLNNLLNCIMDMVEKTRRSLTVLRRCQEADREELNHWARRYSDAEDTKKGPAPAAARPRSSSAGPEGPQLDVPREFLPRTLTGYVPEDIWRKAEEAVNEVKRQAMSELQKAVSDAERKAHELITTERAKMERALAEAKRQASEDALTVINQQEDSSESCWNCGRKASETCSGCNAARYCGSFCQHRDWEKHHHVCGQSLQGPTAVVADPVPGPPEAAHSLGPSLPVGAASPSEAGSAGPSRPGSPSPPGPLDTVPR

The chains behind the UniProt entries cited, without tags or fusion partners.
UniProt Q16665: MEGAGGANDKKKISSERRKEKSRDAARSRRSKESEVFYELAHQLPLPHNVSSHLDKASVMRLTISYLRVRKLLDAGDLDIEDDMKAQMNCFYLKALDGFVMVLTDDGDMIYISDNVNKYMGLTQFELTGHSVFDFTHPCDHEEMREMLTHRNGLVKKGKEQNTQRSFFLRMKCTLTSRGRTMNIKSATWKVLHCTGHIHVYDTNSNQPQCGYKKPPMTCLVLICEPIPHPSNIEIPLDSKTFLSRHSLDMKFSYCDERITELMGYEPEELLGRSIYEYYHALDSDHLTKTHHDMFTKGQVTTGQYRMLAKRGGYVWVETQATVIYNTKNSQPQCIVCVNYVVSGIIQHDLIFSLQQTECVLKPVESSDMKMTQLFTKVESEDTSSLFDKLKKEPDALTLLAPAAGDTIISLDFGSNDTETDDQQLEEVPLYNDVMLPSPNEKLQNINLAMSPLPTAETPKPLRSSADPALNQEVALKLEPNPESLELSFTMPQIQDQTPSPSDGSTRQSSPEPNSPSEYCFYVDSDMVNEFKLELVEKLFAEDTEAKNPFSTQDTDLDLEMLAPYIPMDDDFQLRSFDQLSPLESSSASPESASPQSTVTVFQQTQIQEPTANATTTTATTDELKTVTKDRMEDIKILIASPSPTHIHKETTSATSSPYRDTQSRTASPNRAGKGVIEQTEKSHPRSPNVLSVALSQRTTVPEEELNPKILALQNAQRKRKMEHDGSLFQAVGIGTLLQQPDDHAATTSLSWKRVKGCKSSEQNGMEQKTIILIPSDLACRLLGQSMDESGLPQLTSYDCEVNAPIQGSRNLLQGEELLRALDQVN
UniProt Q9GZT9: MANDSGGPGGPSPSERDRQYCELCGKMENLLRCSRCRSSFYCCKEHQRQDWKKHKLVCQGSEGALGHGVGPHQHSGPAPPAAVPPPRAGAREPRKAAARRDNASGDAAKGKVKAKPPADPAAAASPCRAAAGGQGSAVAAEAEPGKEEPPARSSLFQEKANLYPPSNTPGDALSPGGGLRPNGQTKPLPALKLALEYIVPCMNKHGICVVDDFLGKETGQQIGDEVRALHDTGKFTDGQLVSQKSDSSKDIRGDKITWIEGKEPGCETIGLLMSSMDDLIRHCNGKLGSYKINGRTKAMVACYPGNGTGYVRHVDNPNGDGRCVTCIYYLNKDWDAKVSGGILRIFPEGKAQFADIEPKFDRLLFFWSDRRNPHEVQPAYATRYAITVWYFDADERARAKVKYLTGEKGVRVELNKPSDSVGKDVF

[2] = biological target: T2, MTG16 (full length) (UniProt O75081); assay: co-IP; COS-7 cells transfected with MTG16 and HIF1α, harvested after 24 h; IP with α-MTG or α-HIF1α and Protein A Sepharose, lysis buffer with 250 mM NaCl, 0.1% NP-40; Western blotting
T2 sequence: T1 sequence

[3] = biological target: T3, GST-MTG16 (UniProt O75081); assay: pull-down; GST or GST fusion protein on glutathione-Sepharose beads, incubated overnight at 4°C with whole cell lysate of transfected COS-7 cells; NTN buffer (100 mM NaCl, 20 mM Tris, 0.1% NP-40) with 1.0 mM EDTA; Western blotting; only the target purified
T3 sequence: T1 sequence

[4] = biological target: GST-HIF1α (UniProt Q16665); assay: as above
[5] = biological target: HIF1α (full length) (UniProt Q16665); assay: co-IP; COS-7 cells transfected with MTG16 and HIF1α, harvested after 24 h; IP with α-MTG or α-HIF1α and Protein A Sepharose, lysis buffer with 250 mM NaCl, 0.1% NP-40; Western blotting
[6] = biological target: HIF1α (in Raji-MTG16 cells at 4% O2) (human (endogenous in Raji)) (UniProt Q16665); assay: co-IP; Raji-MTG16 cells induced 12 h with 20 ng/ml doxycycline under 4% O2; IP with α-MTG or α-HIF1α and Protein A Sepharose; Western blotting
[7] = biological target: HA-HIF1α (UniProt Q16665); assay: co-IP; Raji-MTG16 cells co-transfected with HA-HIF1α and FLAG-ubiquitin, 4% O2, with 20 ng/ml doxycycline; IP with anti-HA antibody; Western blotting

Molecule: HIF1α (full length) (from UniProt Q16665 1-826)
binding [2]: binds
binding [3]: binds

Molecule: HIF1α (in Raji-MTG16 cells at 4% O2) (from UniProt Q16665 1-826)
binding [1]: binds

B2: MTG16 (full length) (protein, UniProt O75081 1-653)
chain: T1 sequence
binding [5]: binds
binding [4]: binds

B3: MTG16 (doxycycline-induced in Raji/MTG16 Tet-On 3G cells) (protein, UniProt O75081 1-653)
chain: T1 sequence
binding [6]: binds
binding [7]: binds

B6: MTG16 residues 1–290 (domain or fragment, UniProt O75081 1-290)
chain: MPASRLRDRAASSASGSTCGSMSQTHPVLESGLLASAGCSAPRGPRKGGPAPVDRKAKASAMPDSPAEVKTQPRSTPPSMPPPPPAASQGATRPPSFTPHTHREDGPATLPHGRFHGCLKWSMVCLLMNGSSHSPTAINGAPCTPNGFSNGPATSSTASLSTQHLPPACGARQLSKLKRFLTTLQQFGSDISPEIGERVRTLVLGLVNSTLTIEEFHSKLQEATNFPLRPFVIPFLKANLPLLQRELLHCARLAKQTPAQYLAQHEQLLLDASASSPIDSSELLLEVNEN
binding [4]: binds

The remaining lines, values ahead:

binding [1]: binds
Molecule: prolyl hydroxylase domain-containing protein 2 (PHD2) (from UniProt Q9GZT9 1-426) (enzyme)

binding [4]: binds
B1: MTG16 residues 1–405 (domain or fragment, UniProt O75081 1-405)
chain: MPASRLRDRAASSASGSTCGSMSQTHPVLESGLLASAGCSAPRGPRKGGPAPVDRKAKASAMPDSPAEVKTQPRSTPPSMPPPPPAASQGATRPPSFTPHTHREDGPATLPHGRFHGCLKWSMVCLLMNGSSHSPTAINGAPCTPNGFSNGPATSSTASLSTQHLPPACGARQLSKLKRFLTTLQQFGSDISPEIGERVRTLVLGLVNSTLTIEEFHSKLQEATNFPLRPFVIPFLKANLPLLQRELLHCARLAKQTPAQYLAQHEQLLLDASASSPIDSSELLLEVNENGKRRTPDRTKENGSDRDPLHPEHLSKRPCTLNPAQRYSPSNGPPQPTPPPHYRLEDIAMAHHFRDAYRHPDPRELRERHRPLVVPGSRQEEVIDHKLTEREWAEEWKHLNNLLNC

binding [4]: binds
B4: MTG16 residues 1–354 (domain or fragment, UniProt O75081 1-354)
chain: MPASRLRDRAASSASGSTCGSMSQTHPVLESGLLASAGCSAPRGPRKGGPAPVDRKAKASAMPDSPAEVKTQPRSTPPSMPPPPPAASQGATRPPSFTPHTHREDGPATLPHGRFHGCLKWSMVCLLMNGSSHSPTAINGAPCTPNGFSNGPATSSTASLSTQHLPPACGARQLSKLKRFLTTLQQFGSDISPEIGERVRTLVLGLVNSTLTIEEFHSKLQEATNFPLRPFVIPFLKANLPLLQRELLHCARLAKQTPAQYLAQHEQLLLDASASSPIDSSELLLEVNENGKRRTPDRTKENGSDRDPLHPEHLSKRPCTLNPAQRYSPSNGPPQPTPPPHYRLEDIAMAHHFR

binding [4]: no binding
B5: MTG16 residues 290 to 653 (domain or fragment, UniProt O75081 290-653)
chain: NGKRRTPDRTKENGSDRDPLHPEHLSKRPCTLNPAQRYSPSNGPPQPTPPPHYRLEDIAMAHHFRDAYRHPDPRELRERHRPLVVPGSRQEEVIDHKLTEREWAEEWKHLNNLLNCIMDMVEKTRRSLTVLRRCQEADREELNHWARRYSDAEDTKKGPAPAAARPRSSSAGPEGPQLDVPREFLPRTLTGYVPEDIWRKAEEAVNEVKRQAMSELQKAVSDAERKAHELITTERAKMERALAEAKRQASEDALTVINQQEDSSESCWNCGRKASETCSGCNAARYCGSFCQHRDWEKHHHVCGQSLQGPTAVVADPVPGPPEAAHSLGPSLPVGAASPSEAGSAGPSRPGSPSPPGPLDTVPR
